Source: PubChem BioAssay AID2546 (National Center for Advancing Translational Sciences (NCATS), 2010)
In all, about 310,000 compounds went through this assay and about 11,000 (3.5%) were called active. The shares of active, inactive and inconclusive entries below differ from those in the screen. The call rests on the fitted dose curve; in most records, active means well fitted inhibition curve with a large enough effect; inconclusive means small, poorly fitted or top-dose-only effect, or effect the other way; inactive means flat fitted curve, though single readings scatter. No potency is given beside an inconclusive call; the fits are too rough.

Test: VP16 counterscreen qHTS for inhibitors of ROR gamma transcriptional activity;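 further: Gal4-VP16 expression switched on by copper sulfate through the metallothionein promoter; nearly all actives have a fitted effect of over 50% in size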
Conditions: Drosophila S2 Gal4-VP16 UAS-luciferase, luminescence, 20 h; activity, negative = inhibition: at 53.6 µM (top of the series)
On the % scale 0 is the no-effect control and ±100 the full control effect; potency means the concentration at half of the fitted maximal effect; tags describe the fitted curve by direction and shape.

SMILES | Potency | activity, negative = inhibition
Cc1ccc2c(c1)/C(=C/c1ccc(F)cc1)C(=O)N2 | inactive | –
O=C(Nc1ccccc1)N1CCN(c2ccc(C(F)(F)F)cn2)CC1 | inconclusive [inhibitor, single point] | –
O=[N+]([O-])c1ccc(N2CCN(C(=S)NC3CCCCC3)CC2)cc1 | inconclusive [inhibitor, single point] | –
O=C(NC(=S)Nc1ccccn1)c1cccc([N+](=O)[O-])c1 | inconclusive [inhibitor, single point] | –
Cc1nc(N2CCOCC2)c2c(C)c(C(=O)Nc3ccc(C(F)(F)F)cc3)sc2n1 | inconclusive [inhibitor, single point] | –
COc1ccc2nc(-c3ccccc3)[nH]c2c1 | inconclusive [inhibitor, single point] | –
CCc1cc2ccccc2nc1SCC(=O)Nc1cc(OC)c(OC)cc1C(=O)O | inconclusive [activator, single point] | –
Cc1ccc(CN=C2Nc3ccccc3CS2)cc1 | inconclusive [inhibitor, full curve] | –
CCCn1c(C(O)c2ccc(C)cc2)nc2ccccc21 (stereo not given) | inconclusive [inhibitor, single point] | –
CCc1ccccc1Nc1ccc(C(=O)O)cc1N | inconclusive [inhibitor, single point] | –
O=C(N/N=C/c1ccc([N+](=O)[O-])s1)c1cccc(Br)c1 | active: 1.26 µM | –
CC1CCC(C(=O)O)NC1c1cccc(N2CCCC2=O)c1 (stereo not given) | – | inactive: 2% [at 10 µM]
COc1ccc(N2C(=O)CC(Sc3ncn[nH]3)C2=O)c(OC)c1 (stereo not given) | active: 22.4 µM | –
Cc1nc(N2CCN(S(=O)(=O)c3ccc(F)cc3)CC2)c2c(C)c(C)sc2n1 | inactive | –
COc1cc(C(=O)N/N=C/c2ccc(OC(=O)c3cccc(C)c3)cc2)ccc1O | inactive | –
O=C(CCl)N(c1ccccc1)C1CCCCC1 | active: 3.55 µM | –
CCCC(=O)Nc1nnc(SCC(=O)NCc2ccc3c(c2)OCO3)s1 | inactive | –
N/C(=N\OC(=O)c1ccc(F)cc1)c1ccccc1 | inconclusive [inhibitor, single point] | –
CCC(C)c1ccc(NC(=S)Nc2ccc(OC)cc2)cc1 (stereo not given) | active: 5.62 µM | –
O=C(c1ccco1)N1CCN(C(=O)c2oc(=O)c3ccccc3c2-c2ccccc2)CC1 | inactive | –
CCOC(=O)N1CCN(C(=O)CNC(=O)c2nn(-c3ccc(OC)cc3)c(=O)c3ccccc23)CC1 | inconclusive [inhibitor, single point] | –
CNC(=S)N/N=C/c1cn(CCOc2cccc(OC)c2)c2ccccc12 | active: 5.01 µM | –
CCCCOC(=O)c1ccc(NC(=O)C(=O)CC(=O)c2ccc(OC)cc2)cc1 | inconclusive [inhibitor, single point] | –
CCOC(=O)N1CCN(C(=O)c2oc3ccc(S(=O)(=O)N4CC(C)CC(C)C4)cc3c2C)CC1 (stereo not given) | inconclusive [inhibitor, single point] | –
S=C(Nc1ccc(Cl)cc1)Nc1ccc2c(c1)OCCO2 | inconclusive [inhibitor, single point] | –

SMILES | Potency | activity, negative = inhibition
CN(C)S(=O)(=O)N1CCCC(C(=O)c2ccc(-c3ccccc3)c(F)c2)C1 (stereo not given) | inconclusive [inhibitor, single point] | –
COc1cccc(CN2CCN(Cc3cccc4c3OCO4)CC2CCO)c1 (stereo not given) | active: 7.94 µM | –
COc1ccc(N2C(=O)CCC(C(=O)N3CCN(c4ccccn4)CC3)C2c2ccc(F)cc2)cc1 (stereo not given) | inactive | –
C=CCNC(=O)/C(C#N)=C/c1ccc(OS(=O)(=O)c2ccc(C)cc2)c(OC)c1 | inconclusive [inhibitor, single point] | –
O=C(NCc1ccccc1)/C(=C/c1ccc(OC(F)F)cc1)c1ccccc1 | inconclusive [inhibitor, single point] | –
Cc1ccccc1NNC(N)=S | inconclusive [activator, partial curve, poor fit] | –
COc1ccc(NC(=S)Nc2nc(CC(=O)Nc3ccccc3OC)cs2)cc1 | active: 4.47 µM | –
O=S(=O)(N/N=C/c1c(F)cccc1Cl)c1ccccc1 | inconclusive [inhibitor, single point] | –
Cc1nc(NC(=O)/C=C/c2ccccc2)sc1C(=O)Nc1cccc(Cl)c1 | inconclusive [inhibitor, full curve, poor fit] | –
CCc1ccccc1NC(=O)c1cc(-c2cccs2)on1 | inconclusive [inhibitor, single point] | –
Fc1ccc(CCNC(=S)Nc2ccc(F)c(Cl)c2)cc1 | inconclusive [inhibitor, single point] | –
OC1(C(F)(F)F)CC(O)(C(F)(F)F)n2nc(-c3ccccc3)cc2N1 (stereo not given) | inconclusive [inhibitor, single point] | –
CC(C)(C)C1CCC2(CC1)NC(=S)N(c1ccccc1)N2 (stereo not given) | active: 15.8 µM | –
CC(NC(=S)NC(=O)c1ccccc1Br)c1ccccc1 (stereo not given) | active: 7.08 µM | –
C=CC[n+]1ccc(/C=C2\C=Cc3cc(C)ccc3N2CC)c2ccccc21 | active: 1.26 µM | –
COc1ccc(CNC2CCSc3ccccc32)cc1OC (stereo not given) | inactive | –
COc1ccc(S(=O)(=O)NNC(=O)c2cc3ccccc3o2)cc1 | inactive | –
Cc1cc(C)c(S(=O)(=O)Nc2cccc3cccnc23)c(C)c1 | active: 0.316 µM | –
CCNC(=O)COC(=O)c1cc(C)n(-c2ccccc2)c1C | inactive | –
CCc1nnc(NC(=O)c2cc(Cl)ccn2)s1 | active: 7.08 µM | –
O=C1C(=O)c2ccc(-c3ccccc3)cc2-c2ccccc21 | active: 3.55 µM | –
COc1ccccc1NC(=O)c1sc2nc(N3CCOCC3)c3c(c2c1N)CCCC3 | inconclusive [inhibitor, single point] | –
O=C(O)c1ccc(S(=O)(=O)c2ccc3c(c2)C(=O)N(NC(=O)c2ccc(O)cc2)C3=O)cc1 | active: 10 µM | –
CCOc1cc(CNn2cn[nH]c2=S)cc(Cl)c1OCc1ccccc1F | active: 6.31 µM | –
O=C(CC(=O)c1ccccc1O)c1ccc(F)cc1 | inconclusive [inhibitor, single point] | –

SMILES | Potency | activity, negative = inhibition
CC(C)(C)OC(=O)CNC(=O)c1nc[nH]c1C(=O)N1CCc2ccccc2C1 | inconclusive [inhibitor, single point] | –
Cc1cc(C(=O)NCc2csc(-c3ccccc3)n2)no1 | inconclusive [activator, single point] | –
COc1ccc(N=Nc2ccc(O)c3ncccc23)cc1 | inconclusive [inhibitor, full curve, poor fit] | –
O=C(Nc1ccc(Cl)cc1C(=O)Nc1ccccn1)c1ccco1 | inconclusive [inhibitor, single point] | –
CCOC(=O)c1cc(-c2ccncc2)nc2c1c(C)nn2-c1ccccn1 | inactive | –
CN(C)S(=O)(=O)c1ccc(C(=O)NCCc2ccco2)cc1 | inconclusive [inhibitor, single point] | –
COc1ccccc1NCc1cc(=O)oc2c(C)c(O)ccc12 | inconclusive [inhibitor, single point] | –
CC(=O)Nc1nc2ccccc2n1Cc1ccc(Cl)cc1 | active: 1.58 µM | –
Cc1ccc(Oc2c(C(N)=O)cc([N+](=O)[O-])cc2[N+](=O)[O-])cc1 | active: 2.51 µM | –
O=C(CCSc1ccccn1)c1ccccc1 | inconclusive [inhibitor, single point] | –
COc1ccc(-c2c(NC(=O)c3ccco3)oc3ccccc3c2=O)cc1OC | inactive | –
NNC(=S)NCc1ccccc1 | active: 10 µM | –
Cc1cccc(CN2CCN(C(C)C(=O)NC(C)c3ccccc3)CC2)c1 (stereo not given) | inactive | –
COc1ccc(/C=N/NC(=O)COc2cccc3ccccc23)c(C(=O)O)c1OC | inconclusive [inhibitor, single point] | –
CC1CCC(=C(C#N)c2nc(-c3cc4ccccc4oc3=O)cs2)CC1 (stereo not given) | inconclusive [activator, partial curve] | –
CCOC(=O)c1c(C)[nH]c(C(=O)C(C)Sc2ccc(Cl)cc2)c1C (stereo not given) | inconclusive [inhibitor, single point] | –
COCCNC(=O)c1ccc(NS(=O)(=O)c2ccc3[nH]c(=O)[nH]c3c2)cc1 | inactive | –
Cc1ccccc1NC(=S)N=Nc1c(O)n(C)c2ccc(S(=O)(=O)N3CCOCC3)cc12 | active: 0.794 µM | –
CCCc1ccc(/C=C2\C(=O)c3ccccc3C(O)=C2C(=O)OCC)cc1 | inconclusive [inhibitor, single point] | –
C=CCNC(=S)NN=C1CCCCCCC1 | active: 4.47 µM | –
Cn1c(CSc2nc3ccc(Br)cc3[nH]2)nc2ccccc21 | inconclusive [inhibitor, single point] | –
Oc1ccc(C2C[C@H]3CC[C@@H]2C3)cc1O (stereo not given in full) | inconclusive [inhibitor, single point] | –
CSc1ccc(Cl)c(C(=O)NCCOc2ccccc2)c1 | inconclusive [inhibitor, single point] | –
CCSc1nnc(NC(=O)C2Cc3ccccc3CN2C(=O)c2ccco2)s1 (stereo not given) | inconclusive [inhibitor, single point] | –
Cc1nn(C)cc1C(=O)NNC(=S)Nc1ccc(Cl)cc1 | inconclusive [inhibitor, single point] | –
